The subject of the assay is L1210 leukemia ip in BDF1 mice, survival T/C. Description: NCI In Vivo Anticancer Drug Screen. Data for tumor model L1210 Leukemia (intraperitoneal) in B6D2F1 (BDF1) mice. To be noted: higher = longer survival.

Toxic doses and inconclusive results are not listed. Certain results were filed several times, with different values. The list is limited to them. The source may hold further records. Results that share an entry do not match, cause unknown; some may be repeats, others may stem from another dose, organism or construct than stated.

For `COc1cc(C=Nc2ccc(-c3nc(C)sc3C)cc2)ccc1N(CCCl)CCCl`, where the note is “endpoint: mean survival time, dose: 16.6 mg/kg/injection, schedule: Q01DX001 (ip), vehicle: carboxymethylcellulose (CMC)”, the T/C was 123 % of control and 151 % of control.

With `C1OC1CN1CCN(CC2CO2)CC1` (centres undefined), the T/C (endpoint: mean survival time, dose: 25.0 mg/kg/injection, schedule: Q01DX009 (ip), vehicle: saline) is 109 % of control, 191 % of control, 195 % of control.

On to `COc1cccc2c1C(=O)c1c(O)c3c(c(O)c1C2=O)CC(O)(C(C)=O)CC3OC1CC(N)C(O)C(C)O1` (centres undefined), for which the T/C (endpoint: median survival time, dose: 30.0 mg/kg/injection, schedule: Q01DX005 (ip), vehicle: water) was 121 % of control and 172 % of control.

On to `COc1cc(C=Nc2ccc(-c3csc(COc4ccccc4)n3)cc2)ccc1N(CCCl)CCCl`, for which the T/C (endpoint: mean survival time, dose: 33.0 mg/kg/injection, schedule: Q01DX015 (ip), vehicle: carboxymethylcellulose (CMC)) was 111 % of control and 159 % of control.

The values above are taken from PubChem BioAssay AID248 (DTP/NCI, 2004).
